Results reported in ChEMBL document CHEMBL4888484, “Replenishing the malaria drug discovery pipeline: Screening and hit evaluation of the MMV Hit Generation Library 1 (HGL1) against asexual blood stage Plasmodium falciparum ,using a nano luciferase reporter read-out” (2022).
Values joined by “and” are separate entries in the source; they are usually repeats but may differ in a detail not shown here. Equal entries are not always repeated. Screen size: about 150,000 compounds; about 540 (0.36%) showed an effect of 50% or more. This is one part of the list.

System: Plasmodium falciparum
Assay: Primary screen in NF54 nanoGlo assay, in single point, at 2uM, 72h; a lower Z score goes with more inhibition
Type: functional, Erythrocyte
Conditions: timepoint 72 hour

| Compound | % Inhibition [%] | Z score | % Inhibition (2 µM) |
| --- | --- | --- | --- |
| CC[C@H](NC(=O)Cc1c(C)n[nH]c1C)C1CC(O)C1 (some centres not stated) | 3 | -0.29 |  |
| CN(C(=O)[C@@H]1CCn2c(C(=O)c3ccccc3)ccc21)C1CCCCC1 | -15 | 1.79 |  |
| Cc1cc(-c2cc(-c3c(C)nn(CC(=O)O)c3C)nc(N)c2C#N)oc1C | -10 | 1.82 |  |
| COc1ccc(-c2cnn(C[C@H]3CCOC3)c2)c(CO)c1 | -10 | 1.74 |  |
| CCc1nnsc1C(=O)Nc1ccc(N2CCNC(=O)C2)nc1 | -1 | 0.28 |  |
| Cn1ncnc1CNC(=O)C[C@H](O)c1cc(Cl)cc(Cl)c1 | -2 | 0.27 |  |
| COCCc1ccccc1NCc1nc(-c2cccs2)n[nH]1 | -12 | 1.71 |  |
| Cc1ccc(CNC(=O)N2CCCCCCNC(=O)[C@@H]3C[C@@H](C(=O)NCCc4c[nH]cn4)C[C@@H]32)cc1 | -13 | 1.69 |  |
| CC[C@H](NC(=O)N1CCC(O)(C(N)=O)CC1)c1ccccc1F | -8 | 1.04 |  |
| Cc1cc(C(=O)NCc2ccc(-c3ccnn3C)nc2)n(C)n1 | -2 | 0.24 |  |
| CCCC(=O)N1CCCN(C2=NS(=O)(=O)C(c3ccc(C)cc3)=C2C)CC1 | -6 | 1.14 |  |
| CCc1occc1C(=O)N(CC(C)(C)O)C1CC1 | 10 | -1.36 |  |
| Cc1[nH]ccc1C(=O)NCCc1cn(C)cn1 | -16 | 3.26 |  |
| CNC(=O)CN1c2ccccc2C(=O)N(C)[C@@H]1c1occc1C | 0 | 0.06 |  |
| Cc1ccc(N2CCc3c(cccc3NCc3cncn3C)C2)nn1 | -5 | 0.45 |  |
| O=S(=O)(c1ccccc1)N1CC[C@H](Cc2nnc(-c3cccnc3)[nH]2)C1 | -12 | 2.09 |  |
| COCCN1CCC(CN2C[C@@](C)(c3ccccc3)CCC2=O)CC1 | 3 | -0.45 |  |
| CC(C)CNC(=O)N1CC[C@H](Nc2cccnc2)C1 | -13 | 1.65 |  |
| O=C(Cc1cscn1)N1CCN(C(=O)c2ccsc2)CC1 | -12 | 2.37 |  |
| Cc1cccc(OCc2nc(C(=O)NC[C@H]3CCCO3)cs2)c1C | -17 | 1.71 |  |
| Cc1ccccc1C(=O)Nc1ccc2c(c1)N(C(=O)c1ccccc1)CCC2 | -2 | 0.19 |  |

| Compound | % Inhibition [%] | Z score | % Inhibition (2 µM) |
| --- | --- | --- | --- |
| CN1CCN(Cc2ccc(C(N)=O)cc2)C[C@@]12CCC(=O)N(CC1CC1)CC2 | -5 | 0.76 |  |
| COCCN=C(NCCc1ccc(OC)cc1)NCc1nccs1 | -1 | 0.2 |  |
| Cc1ccc(C(=O)NCC(=O)O[C@H]2CCOC2=O)cc1 | 2 | -0.15 |  |
| Cc1cc(C(=O)Nc2ccc3c(c2)C(=O)N(C)C3=O)sc1C | -13 | 1.8 |  |
| CC(=O)N1CCc2cc(S(=O)(=O)[C@@H](C)CC(=O)N3CCN(c4cccc(C)c4C)CC3)ccc21 | 5 | -0.85 |  |
| Cc1nc(N[C@H]2CCCc3ccccc32)cc(C2CC(O)C2)n1 (some centres not stated) | 2 | -0.32 |  |
| O=C(CCOc1cccc(Cl)c1)N1CC[C@@](O)(C(F)F)C1 | -6 | 1.24 |  |
| O=C(NC[C@H]1CCCCS1(=O)=O)NC1CC(C(F)(F)F)C1 (some centres not stated) | 3 | -0.51 |  |
| Cc1cc(C)c(CN2CCOC[C@@H]2C(=O)O)cc1CN1CCC(C)CC1 | -16 | 2.48 |  |
| CCC(C#N)(CC)C(=O)Nc1cc2cc[nH]c2cn1 | 10 | -1.32 |  |
| CC(C)(C)OC(=O)N1CC(Oc2ncccc2F)C1 | -3 | 0.32 |  |
| CN(Cc1csc(-c2cccs2)n1)c1ncnc2c1CCNCC2 | 10 | -1.3 |  |
| Cc1cc(C)n(CCCn2ccnc2-c2ccc(N(C)C)nc2)n1 | -1 | 0.11 |  |
| CC(=O)N1CCN(c2ccc(NCc3ccccc3)cc2)CC1 | -32 | 3.8 |  |
| O=S(=O)(c1ccccc1)C1CC2CCC(C1)N2S(=O)(=O)c1cccnc1 (configuration not stated) | 1 | -0.09 |  |
| C[C@@H](CC#N)N(C)C(=O)c1cc(F)c[nH]1 | 6 | -0.62 |  |
| CCCC1(CCC)NC(=O)N(CC(=O)NCCCOC)C1=O | -5 | 0.94 |  |
| Cc1nc(-c2ccc(NC(=O)c3cccs3)cc2)co1 | -3 | 0.41 |  |
| O=C(NC1CCOCC1)c1ccc(NC(=O)C2CC=CC2)cc1 | -4 | 0.44 |  |
| O=C(c1ccccc1OCc1ccccc1)N1CC[C@@H]2CNC[C@@H]21 | 8 | -1.05 |  |
| CC(=O)c1cccc(NC(=O)[C@@H]2CN(S(=O)(=O)c3ccccc3)c3cc(C(C)(C)C)ccc3O2)c1 | -10 | 1.51 |  |

| Compound | % Inhibition [%] | Z score | % Inhibition (2 µM) |
| --- | --- | --- | --- |
| CCOc1cc(CN(CC)C(=O)Cc2cnn(-c3ccccc3)c2)ccc1OCc1cccs1 | -1 | 0.08 |  |
| COc1ccc(N2CCN(C(=O)c3cnn(C(C)(C)C)c3C3CCN(C(=O)OC(C)(C)C)CC3)CC2)cc1 | 14 | -2.15 |  |
| CN1CCN(c2nc3c(c(N4CCCC4)n2)CN(C(=O)NCc2ccccc2)CC3)CC1 | 8 | -0.8 |  |
| Cc1cc(Br)cnc1NC(=O)[C@H]1CCS(=O)(=O)C1 | -2 | 0.39 |  |
| O=C(Nc1ccc(-n2cncn2)nc1)C1CCCCC1C(F)(F)F (configuration not stated) | -1 | 0.25 |  |
| Cc1cc(C(=O)Nc2ccc([C@@H](O)[C@H]3COCC(=O)N3Cc3ccccc3F)cc2)n(C)n1 | 10 | -1.16 |  |
| CC(C)(CCCc1ccccc1)C(=O)NC1CCS(=O)(=O)CC1 | -1 | 0.11 |  |
| CCCN(Cc1nccn1C)C(=O)NCc1nc(CC)cs1 | -13 | 2.37 |  |
| COCCCN(Cc1c(-c2ccccc2)noc1N1CCCC[C@@H]1C)C(=O)C1CCCC1 | 2 | -0.28 |  |
| CCn1c(C)cc(C(=O)N2C[C@@H]3CC[C@H]2CN(Cc2[nH]cnc2C)C3)c1C | -8 | 1.19 |  |
| O=C(c1cc2ccccc2o1)N1CCC[C@@H]1Cn1nccn1 | -2 | 0.31 |  |
| O=C(CN1CCN2C(=O)OC[C@H]2C1)NCC1CCCCC1 | -2 | 0.31 |  |
| CCCN1C[C@@H](NC(=O)COc2ccc(Cl)cc2Cl)CC1=O | -7 | 0.81 |  |
| CCO[C@@H](C)c1ncc(C(=O)Nc2ccc(-c3nnn[nH]3)cc2)s1 | -5 | 0.73 |  |
| COCc1cc(CN(C)c2cc(C(C)C)nc(C)n2)n[nH]1 | -1 | 0.09 |  |
| CCN(c1ccccc1)c1ccc(CNC(=O)Cn2cncn2)cc1 | 9 | -1.26 |  |
| NC(=O)c1cncc(CCOc2ccc(F)cc2)c1 | -10 | 2.05 |  |
| CC1CC1C(=O)NCCC(=O)NC(C)(C)C (configuration not stated) | -9 | 1.37 |  |
| CCN(C(=O)c1cccnc1C)[C@H]1CCN(Cc2ccccc2)C1 | -8 | 1.05 |  |
| COc1ccccc1NC(=O)Cn1c2ccccc2n2c(=O)cc(-c3cccc(Cl)c3)nc12 | -4 | 0.45 |  |
| CC(c1ccccc1)n1nnnc1N1C[C@@H]2[C@H](C1)[C@H]1CC[C@@H]2O1 (some centres not stated) | -8 | 1.15 |  |

| Compound | % Inhibition [%] | Z score | % Inhibition (2 µM) |
| --- | --- | --- | --- |
| O=C(CCC(F)(F)F)NCCCCc1ccccn1 | -5 | 0.61 |  |
| Cc1nnc2c(N3CC[C@H](NC(=O)c4cc(-c5ccccc5)n[nH]4)C3)nccn12 | -4 | 0.5 |  |
| CC1CCC(NC(=O)CN2CCN(c3ncc(C(F)(F)F)s3)CC2)CC1 (configuration not stated) | -3 | 0.69 |  |
| CN(C)c1ncc(CN[C@H]2CCc3sc(Cl)cc32)s1 | 1 | -0.07 |  |
| O=C(C(=O)N1CC[C@@]2(CCCN(Cc3ccccc3F)C2)C1)c1ccccc1 | 1 | -0.13 |  |
| Cc1ccccc1Oc1nc(N2CCCCC2)nc2c1CN(C(=O)c1ccco1)CC2 | 1 | -0.23 |  |
| Cc1nn(C)cc1-c1ccc(C(=O)N2CCC3(CCNC(=O)CC3)CC2)cc1 | 5 | -0.66 |  |
| CC(C(=O)N1CCC(=O)NCCN(c2nc3cc(C)cc(C)c3o2)CC1)=C1CCC1 | 0 | 0.02 |  |
| CCCc1cc(CN(C)[C@H]2CCN(c3ccccc3)C2)n[nH]1 | -3 | 0.39 |  |
| CC1(C)C[C@@H]2C[C@@](C)(CN2C(=O)c2cnc(-c3cccnc3)nc2)C1 | -21 | 3.45 |  |
| CN(Cc1nccn1C(F)F)S(=O)(=O)CC1(C#N)CCCC1 | -7 | 0.89 |  |
| O=C(CCS(=O)(=O)c1ccc(Cl)cc1)NCc1cccnc1 | -30 | 3.47 |  |
| CN(C)CCNC(=O)c1ccc(Cl)c(N)c1 |  |  | -13% and 2% |
| Cc1ccccc1Cn1nnc2scnc2c1=O | -12 | 1.42 |  |
| COc1nc(C)cc(NC2CCS(=O)(=O)CC2)n1 | -5 | 0.89 |  |
| Cc1ccc(S(=O)(=O)N2CCC(C(=O)O[C@@H](C)C(=O)N(C)C3CCCCC3)CC2)cc1 | -7 | 1.42 |  |
| Cc1[nH]ccc1C(=O)N[C@H]1CCn2ccnc21 | -16 | 1.91 |  |
| Cc1noc(C)c1S(=O)(=O)NCc1nncn1C(C)C | -4 | 0.57 |  |
| COc1ccc(S(=O)(=O)N(C)C2CCCCC2O)cc1C(=O)N1CCCCCC1 (configuration not stated) | -5 | 0.74 |  |
| CCCc1ccc(OCCNC(=O)C2CCCCC2)cc1 | -12 | 1.54 |  |
| CCCC(CCC)C(=O)Nc1c(C)cccc1CC | 1 | -0.14 |  |
